# Measured values: the GPR68 mutational scans of Howard et al. (2025)
# The least precise scores are not listed. Not listed are two conditions whose scores span a narrow range. Names with del lack the residues named; names with ins carry added residues between the positions named. For some assays here: The data file names ogerin without a concentration.
# B1: GPR68, Q15743 (parent)
# chain: MGNITADNSSMSCTIDHTIHQTLAPVVYVTVLVVGFPANCLSLYFGYLQIKARNELGVYLCNLTVADLFYICSLPFWLQYVLQHDNWSHGDLSCQVCGILLYENIYISVGFLCCISVDRYLAVAHPFRFHQFRTLKAAVGVSVVIWAKELLTSIYFLMHEEVIEDENQHRVCFEHYPIQAWQRAINYYRFLVGFLFPICLLLASYQGILRAVRRSHGTQKSRKDQIQRLVLSTVVIFLACFLPYHVLLLVRSVWEASCDFAKGVFNAYHFSLLLTSFNCVADPVLYCFVSETTHRDLARLRGACLAFLTCSRTGRAREAYPLGAPEASGKSGAQGEEPELLTKLHPAFQTPNSPGSGGFPTGRLA
# Legend:
# [1] = variants of: B1; experiment: cAMP reporter score (Enrich2 score, wild type = 0); higher = more signal; HEK293T, FACS bins
# [2] = variants of: B1; experiment: surface expression score (Enrich2 score, wild type = 0); higher = more signal; HEK293T, FACS bins
Variant,cAMP reporter score ([1]; pH 5.5),cAMP reporter score ([1]; pH 6),"cAMP reporter score ([1]; pH 6, modulator: ogerin)","cAMP reporter score ([1]; pH 6.5, modulator: ogerin)",surface expression score [2]
S73_P75del,-1.59,-1.1,-2.04,-1.16,-2.33
W77_L78del,-1.17,-1.45,-1.56,-0.587,-0.043
D85_N86insGSG,-1.36,-0.957,-1.32,-0.908,0.916
D85_W87del,-0.671,0.189,-1.27,-1.08,-0.983
Y70_I71insGSG,-2.37,-1.54,-2.27,-1.68,
L74_P75del,-1.15,,-0.735,-1.04,
C72_S73insGS,-0.413,-0.547,,-4.08,
Q79_Y80insGS,-1.36,-1.05,,0.329,-0.589
Y70_C72del,-0.796,-0.368,-1.54,-1.15,-1.98
S88_G90del,-1.34,-0.506,-1.31,-0.664,-1.08
Y80_V81del,-0.53,-1.33,-1.08,-0.9,0.977
L74C,-1.28,,-0.684,-0.427,-0.393
L74F,0.081,-0.678,0.573,,-1.22
L74H,-1.23,-1.45,-1.03,-0.735,-1.72
L74I,-0.579,-0.315,-0.771,-0.701,0.194
L74M,0.34,0.613,0.403,-0.311,1.07
L74R,-1.45,-1.51,-1.52,-1.64,-2.15
L74T,-1.54,-1.51,-0.654,,-0.46
L74E,-1.5,-2.02,,-0.068,-3.06
L74D,-0.692,-1.68,-0.743,-0.822,-2.45
L74S,-1.36,-0.351,-0.952,-0.913,-0.33

Variant,cAMP reporter score ([1]; pH 5.5),cAMP reporter score ([1]; pH 6),"cAMP reporter score ([1]; pH 6, modulator: ogerin)","cAMP reporter score ([1]; pH 6.5, modulator: ogerin)",surface expression score [2]
L74Q,-2.44,,,-0.138,-1.93
L74Y,-0.414,-3.61,,-0.806,-0.929
L74V,-0.14,-1.62,-0.685,-0.746,-0.433
L74K,-1.76,-0.774,-0.881,-0.393,-2.63
L74G,-1.4,0.516,-1.98,-1.9,-2.43
L74W,-1.94,-1.51,-1.55,-1.2,-2.62
L74P,-0.946,-1.08,,-2.54,-1.67
L74A,-1.48,,-1.7,-1.22,-0.21
Q83del,-0.566,-0.791,0.075,,1.91
Q79H,-1.33,-1.43,-1.22,-0.889,0.207
Q79G,-1.11,-0.197,-0.989,-1.29,1.01
Q79N,0.343,-0.675,-0.307,-0.649,1.44
Q79A,-0.34,-0.673,-0.984,-1.27,0.239
Q79Y,-0.706,-0.422,-1.35,-1.09,1.95
Q79T,-0.206,,,-0.979,0.769
Q79R,-1.25,-1.1,-1.14,-0.953,0.401
Q79C,-0.881,-0.681,-1.27,-1.07,-0.497
Q79D,0.72,0.631,0.985,0.233,0.312
Q79M,-1.01,-0.526,-0.905,-1.57,-0.389
Q79F,-1.9,-1.18,-1.52,-0.84,0.748
Q79E,0.498,3.83,1.18,2.72,-0.346

Variant,cAMP reporter score ([1]; pH 5.5),cAMP reporter score ([1]; pH 6),"cAMP reporter score ([1]; pH 6, modulator: ogerin)","cAMP reporter score ([1]; pH 6.5, modulator: ogerin)",surface expression score [2]
Q79W,-1.48,-1.05,-1.62,-1.12,0.312
Q79S,-0.325,-1.09,-0.687,-1.03,1.31
Q79K,-0.93,-0.458,-0.962,-0.954,0.87
Q79L,-0.929,-0.402,-1.17,-0.802,-0.336
Q79I,-1.42,-0.711,-1.21,-1.19,-0.232
Q79V,-1.19,-1.05,-1.93,-0.785,0.377
P75_W77del,-0.738,-1.22,,-0.436,
Y70_I71insG,-1.49,-1.14,,-2.32,-0.58
V81_L82insGSG,-1.76,-0.751,-1.45,-1.46,-0.523
Q79del,-1.2,-0.326,-1.42,-0.472,1.36
W77_L78insG,-1.94,-0.787,-2.13,-0.81,-1.26
W87_S88del,-1.32,-1.65,-1.79,-1.23,-0.483
N86del,0.074,-0.3,0.2,-0.155,0.837
L78_Y80del,-1.89,-1.09,-2.05,-0.633,-0.343
L82_Q83del,-1.29,-0.721,-0.79,-0.586,0.24
N86_W87insGS,-0.935,,0.053,-1.6,1.54
W87_S88insGSG,-1.75,-1.02,-1.18,-0.786,-0.164
P75_F76insGSG,-1.52,-0.836,-2.01,-1.75,-2.44
S88_H89del,-1.72,-1.12,-1.57,-1.7,-0.419
H84_D85del,-1.26,-1.02,-1.93,-1.14,-1.36
W87del,-0.868,-0.98,-1.12,-1.42,-0.283
